Here are results for 62 compounds from PubChem BioAssay (NCI).

Values joined by “and” are separate entries in the source; they are usually repeats but may differ in a detail not shown here. Equal values may be shown once.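 Protocol summary: plate cells (96-well), add compound at 5 concentrations, incubate 48 h, interpolate endpoints linearly. At the GI50, growth is halved. Definition used: TGI = concentration required for complete inhibition of growth.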

This assay relates to NCI-H322M lung. The experiment in a line: NCI-60 cell line screen, 48 h.
Consider `CC[C@]12C=CCN3CC[C@@]4(c5ccc(OC)cc5N(C)[C@H]4[C@@](O)(C(=O)OC)[C@@H]1OC(=O)CCC[P+](c1ccccc1)(c1ccccc1)c1ccccc1)[C@@H]32`, for which the GI50 was 2.29 µM and 3.26 µM; the TGI is 8.88 µM and 14.1 µM.
Turning to `CCCCOC(=O)C1C(c2ccc(Cl)cc2)NC(c2ccc(Cl)cc2)C(C(=O)OCCCC)S1(=O)=O` (centres undefined), the TGI was > 100 µM.
On the same count and under the same terms, the value for `CC1(CCCO)CCCCCC(C)(CCCO)C1=O` (centres undefined) was > 100 µM; that for `COc1cc(-c2cc(=O)c3c(OC)c(OC)c(OC)c(OC)c3o2)c(OC)c(OC)c1OC` was > 100 µM.
Consider `COc1ccc2c(c1)CCC1C2CC[C@@]2(C)C1CC1=CC(COC(C)=O)C3C(=O)c4ccccc4C(=O)C3C12` (some centres undefined), for which the GI50 is > 100 µM and the TGI was > 100 µM.
For `CCSc1n/c(=C\c2ccco2)c2nnnn12`, the TGI is > 100 µM.
On to `Cc1cc2nc3c(C#N)c(-c4ccccc4)cc(Nc4ccc(Cl)cc4)n3c2cc1C`, for which the TGI is > 100 µM.
With `CC(C)=C[C@@H]1C[C@H](C)[C@H]2CC[C@H](C)C3=C2[C@](O)(OC3=O)[C@]1(C)O`, the GI50 is > 100 µM and the TGI is > 100 µM.
On to `O=C(NCCCCCCNC(=O)c1cccc2ccccc12)Nc1cccc2ccccc12`, for which the TGI was > 100 µM.
Same read-out and setting: the same measure for `COC(C)(C)C1=CCC(C)CC1` (centres undefined): > 100 µM; for `CCCCN(CCCC)CC(C(=O)Nc1ccc([N+](=O)[O-])cc1[N+](=O)[O-])/C(C)=N\NC(=S)NN` (centres undefined): > 100 µM.
The same measure, in the same setting: the value for `CC(C)(C)OC(=O)NCC(=O)OCc1ccccc1` was > 100 µM; that for `C=C1CC(c2ccc(OCCCN3C(=O)c4ccccc4C3=O)c(OC)c2)OC1=O` (centres undefined) was 31.5 µM.
Same read-out and setting: the same measure for `O=S(O)CCCCSSCC(O)C(O)CSSCCCCS(=O)O` (centres undefined): > 100 µM; for `COC(=O)C12C3C4C1C1C2C3C41C(=O)OC(C)(C)C` (centres undefined): > 100 µM.
`O=[N+]([O-])c1ccccc1S(=O)(=O)c1cc(Cl)cc2c1NCCC2`: the TGI is > 100 µM.
With `S=C(N/N=C/c1ccco1)NC12CC3CC(CC(C3)C1)C2`, the TGI was > 100 µM.
Same read-out and setting: the value for `CCN(CC)CCOc1ccc(/C=C(\C#N)c2ccc(OCCN(CC)CC)cc2)cc1` was 56.4 µM; that for `CCn1c(-c2cc(OC)cc(OC)c2)nc2c1C(=O)c1ccccc1C2=O` was > 100 µM.
In the case of `CC(O)C(N=Cc1ccccc1[O-])C(=O)[O-].CC(O)C(N=Cc1ccccc1[O-])C(=O)[O-].[Co+2]` (centres undefined), the GI50 is > 100 µM and the TGI is > 100 µM.
On to `O=c1n(CC2CO2)c(=O)n(CC2CO2)c(=O)n1CC1CO1` (centres undefined), for which the GI50 is 50.1 µM and 17.1 µM; the TGI is 119 µM and 41.3 µM.
In turn, `CS(=O)(=O)Nc1ccc(N2Cc3cnc4ccc5[nH]ccc2c5c34)cc1` gave a TGI of 55.8 µM.
Turning to `Cc1ccc(S(=O)(=O)N/N=C/C(=C/c2ccc(Cl)cc2)CC(/C=N/NS(=O)(=O)c2ccc(C)cc2)=C\c2ccc(Cl)cc2)cc1`, the TGI was > 100 µM.
Same read-out and setting: the value for `CCc1nc(N)nc(N)c1-c1ccc(Cl)c(Cl)c1` was > 100 µM.
Still for that read-out and setting: the same measure for `NNC(N)Nc1ccccc1` (centres undefined): > 100 µM.
In the case of `C/C(=C\CCc1ccoc1)CC/C=C(\C)CCCC1=CC(=O)OC1`, the GI50 was 21.1 µM and the TGI was > 100 µM.
For `COc1ccc(N=C2SC(=N/N=c3\sc4ccccc4n3C)SC2=Nc2ccc(OC)cc2)cc1`, the TGI is > 100 µM.
Turning to `COC(=O)Cc1cc(O)c(C/C=C(\C)CC/C=C(\C)C(O)C(=O)C=C(C)C)cc1O` (centres undefined), the TGI is > 100 µM.
`O=C1OC(c2ccccc2)=N/C1=C/C=C/c1ccco1`: the TGI is > 100 µM.
As to `Cc1nc2ccccc2c(=O)n1NC(=O)c1ccc(CS)cc1`, the TGI was > 100 µM.
Take `CC(C)(C)C(=O)OCC1CCC[N+]2(C)CCCCC12` (centres undefined): the TGI was > 100 µM.
Same read-out and setting: the value for `COc1cc(C2c3cc4c(cc3OC(N3CCCC3)C2C)OCO4)cc(OC)c1O` (centres undefined) was > 100 µM; that for `c1ccc(N=C2SC(=NC3CCCCC3)N(C3CCCCC3)C2=Nc2ccccc2)cc1` was > 100 µM.
On to `CC[N+](CC)(CCNCC(N)=O)CC(N)=O`, for which the TGI was > 10 µM.
Same read-out and setting: the same measure for `O=C(Nc1nc2ncn(CCI)c2c(=O)[nH]1)c1ccccc1`: > 100 µM.
Same read-out and setting: the value for `COc1ccc(C2CC(=O)CC(c3ccc(OC)cc3)C23C(=O)NC(=O)NC3=O)cc1` (centres undefined) was 46.6 µM.
Turning to `CC(C)(Cc1ccccc1)NC1=NCCO1`, the TGI is > 100 µM.
In the case of `Clc1c(Cl)c(Cl)c2nn(C3CCCO3)nc2c1Cl` (centres undefined), the TGI was > 100 µM.
Take `Cc1ccc(C(SCC(N)C(=O)O)(c2ccccc2)c2ccc(C)cc2)cc1` (centres undefined): the GI50 is 0.0928 µM and the TGI is 37.7 µM.
As to `C=CC(Br)(CBr)CCC(Cl)C(C)C` (centres undefined), the TGI stood at 19.2 µM.
Still for that read-out and setting: the value for `Cc1ccc(S(=O)(=O)NCC2CCCCC2=O)cc1` (centres undefined) was > 100 µM.
Turning to `COc1ccc(C(=O)c2cc(OC)c(C)c(OC)c2)cc1OC(=O)CCl`, the GI50 is 0.583 µM and the TGI is > 100 µM.
Regarding `CC(=O)Nc1cc(C(=O)Nc2cc(C(=O)N3CC(CCl)c4c3cc(N)c3ccccc43)nn2C)nn1C` (centres undefined), the TGI stood at 0.9 µM.
Turning to `C/C1=C\CC[C@@]2(C)O[C@@H]2[C@H]2OC(=O)[C@@H](CN(C)C)[C@@H]2CC1`, the GI50 is 18.1 µM and the TGI came out at 33.8 µM.
The like results for `CCN1CCN(c2ccc(Nc3cc(N(C)C(=O)Nc4c(Cl)c(OC)cc(OC)c4Cl)ncn3)cc2)CC1` were, in that order, 2.69 µM and 15.5 µM.
`Cc1cc(Br)cc(C)c1NC(=O)C(=O)C(C(=O)c1ccc2ccccc2c1)C1OC(=O)c2ccccc21` (centres undefined) displayed a TGI of 29.8 µM.
Take `Oc1ccc(Cl)cc1Cc1cc(Cl)cc(Cl)c1O`: the GI50 was 7.27 µM and the TGI amounted to 55.6 µM.
As to `CSc1nc2c(nc(C)c(=O)n2C2OCC(OC(C)=O)C(OC(C)=O)C2OC(C)=O)c(=O)[nH]1` (centres undefined), the TGI is > 100 µM.
Same read-out and setting: the same measure for `COc1ccc(OC)c(NC(=O)C(=O)NNC(=O)c2sc(NNC(C)=O)nc2C)c1`: > 100 µM.
In the case of `COc1ncnc(C2CC2)c1-c1ncc2cnn(Cc3ccc(-c4nc(C(F)(F)F)cn4C(C)C)cc3)c2n1`, the GI50 is 19.2 µM and the TGI was > 100 µM.
With `NC(=O)C(N)Cc1ccc(O)cn1` (centres undefined), the TGI is > 100 µM.
On to `Ic1ccc(Nc2nc3nonc3nc2Nc2ccc(I)cc2)cc1`, for which the GI50 is 0.264 µM and the TGI was > 100 µM.
The like results for `COc1ccc(N2C(=O)C(c3ccccc3)(c3ccccc3)C23C(=O)N(C)c2ccccc23)cc1` (centres undefined) were, in that order, > 100 µM and > 100 µM.
For `O=C(OCc1ccc2cccc(O)c2n1)N1CCN(C(=O)c2cc3cc(F)ccc3[nH]2)CC1`, in that order: 1.66 µM and 4.52 µM.
On to `C=C(C)[C@@]12OC3(/C=C/C=C/CCCCC)O[C@@H]1[C@@H]1[C@@H]4O[C@]4(CO)[C@@H](O)[C@]4(O)C(=O)C(C)=C[C@H]4[C@@]1(O3)[C@H](C)[C@H]2OC(=O)c1ccccc1`, for which the GI50 was 1.94 µM and the TGI was found to be 5.14 µM.
Compound `CC(=O)Oc1cccc2c(/C=N/NC(N)=S)ncc(C)c12` had a TGI of 12.5 µM.
Take `NC(Cc1cccc([N+](=O)[O-])c1)C(=O)O` (centres undefined): the TGI was > 100 µM.
`O=C(OC(=O)n1ccc2ccccc21)n1ccc2ccccc21`: the TGI is > 100 µM.
The same measure, in the same setting: the same measure for `NC(N)=NCCN=C(N)N`: > 100 µM.
Regarding `Clc1coc2nc3ccccc3c(Nc3ccc4c(c3)OCO4)c12`, the GI50 was 1.84 µM and the TGI amounted to 9.78 µM.
Turning to `O=c1[nH]c(-c2ccc3ccccc3c2)nc2ccccc12`, the TGI is > 100 µM.
Same read-out and setting: the value for `O=C(O)c1n[nH]nc1Cl` was > 100 µM.
